Among the data in PMC5700166 are binding signal values, retold here.

Holding throughout (assay): protein-binding microarray (PBM)
Common to all, as to settings: PBM: ~300 nM protein, 6 mM HEPES pH 7.8, 80 mM KCl, 0.5 mM EDTA, 0.5 mM EGTA, 6% glycerol, 35 ng/ul poly-dIdC, 1% milk, 1 h, room temperature; Ap Aiptasia and Nv Nematostella (sea anemones) / Co Capsaspora / Aq Amphimedon (sponge) / Dm Drosophila / Hu human; RHD is the Rel homology domain; high values mean tight binding; most listed sequences are background and not binding sites; double strand, one strand shown

In one experiment the target is T1, GST-Ap-NF-kB RHD (UniProt A0A913YAJ5).
T1 sequence: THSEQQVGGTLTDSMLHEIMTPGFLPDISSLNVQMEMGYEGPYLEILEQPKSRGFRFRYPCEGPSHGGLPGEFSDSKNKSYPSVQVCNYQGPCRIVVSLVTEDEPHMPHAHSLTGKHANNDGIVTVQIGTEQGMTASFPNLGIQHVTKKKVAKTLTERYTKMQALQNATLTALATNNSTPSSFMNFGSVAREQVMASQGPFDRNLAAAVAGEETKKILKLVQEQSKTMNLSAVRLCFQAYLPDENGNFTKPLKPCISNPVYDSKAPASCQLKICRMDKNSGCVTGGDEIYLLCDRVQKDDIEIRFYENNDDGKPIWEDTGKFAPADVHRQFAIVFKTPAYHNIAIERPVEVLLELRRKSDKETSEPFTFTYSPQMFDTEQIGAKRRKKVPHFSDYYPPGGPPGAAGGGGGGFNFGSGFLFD

Experiment [1] deals with T2, GST-Nv-NF-kB (Cys allele) (UniProt E5G601).
T2 sequence: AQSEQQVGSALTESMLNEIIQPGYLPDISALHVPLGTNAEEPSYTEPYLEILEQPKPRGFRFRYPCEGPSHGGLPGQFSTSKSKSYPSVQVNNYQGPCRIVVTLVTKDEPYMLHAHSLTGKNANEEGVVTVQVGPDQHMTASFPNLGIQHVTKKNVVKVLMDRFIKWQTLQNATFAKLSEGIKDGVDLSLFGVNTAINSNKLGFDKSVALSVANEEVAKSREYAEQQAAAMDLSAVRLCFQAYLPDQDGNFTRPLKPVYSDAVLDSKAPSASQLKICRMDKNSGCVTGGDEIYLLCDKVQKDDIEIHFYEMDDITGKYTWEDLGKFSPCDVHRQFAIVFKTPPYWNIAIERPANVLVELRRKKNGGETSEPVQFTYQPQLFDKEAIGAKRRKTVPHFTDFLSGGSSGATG

The target in the next experiment is T3, GST-Co-NF-kB (UniProt F1ARL5).
T3 sequence: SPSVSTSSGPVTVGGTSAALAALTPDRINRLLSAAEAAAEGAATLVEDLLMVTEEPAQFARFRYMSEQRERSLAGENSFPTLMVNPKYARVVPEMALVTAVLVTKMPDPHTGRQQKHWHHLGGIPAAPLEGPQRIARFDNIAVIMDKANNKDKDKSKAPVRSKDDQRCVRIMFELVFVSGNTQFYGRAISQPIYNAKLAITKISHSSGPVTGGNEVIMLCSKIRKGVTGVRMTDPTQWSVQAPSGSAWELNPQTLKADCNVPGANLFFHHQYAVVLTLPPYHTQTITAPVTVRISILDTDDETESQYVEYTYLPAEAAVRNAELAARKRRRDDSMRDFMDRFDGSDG

The next experiment addresses T4, GST-Dm-Relish (UniProt Q94527).
T4 sequence: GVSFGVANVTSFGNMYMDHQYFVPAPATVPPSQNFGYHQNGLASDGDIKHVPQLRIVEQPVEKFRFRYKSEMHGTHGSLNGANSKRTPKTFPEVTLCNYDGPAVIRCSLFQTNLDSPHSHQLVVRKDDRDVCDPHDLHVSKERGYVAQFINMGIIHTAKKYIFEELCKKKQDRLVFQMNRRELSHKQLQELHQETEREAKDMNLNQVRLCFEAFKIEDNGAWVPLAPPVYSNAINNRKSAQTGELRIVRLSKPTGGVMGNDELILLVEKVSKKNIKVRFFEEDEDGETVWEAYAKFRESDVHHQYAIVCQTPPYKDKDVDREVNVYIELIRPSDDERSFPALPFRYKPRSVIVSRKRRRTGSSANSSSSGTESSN

A further experiment concerns the target T5, GST-Aq-NF-kB (UniProt A9Y5G7).
T5 sequence: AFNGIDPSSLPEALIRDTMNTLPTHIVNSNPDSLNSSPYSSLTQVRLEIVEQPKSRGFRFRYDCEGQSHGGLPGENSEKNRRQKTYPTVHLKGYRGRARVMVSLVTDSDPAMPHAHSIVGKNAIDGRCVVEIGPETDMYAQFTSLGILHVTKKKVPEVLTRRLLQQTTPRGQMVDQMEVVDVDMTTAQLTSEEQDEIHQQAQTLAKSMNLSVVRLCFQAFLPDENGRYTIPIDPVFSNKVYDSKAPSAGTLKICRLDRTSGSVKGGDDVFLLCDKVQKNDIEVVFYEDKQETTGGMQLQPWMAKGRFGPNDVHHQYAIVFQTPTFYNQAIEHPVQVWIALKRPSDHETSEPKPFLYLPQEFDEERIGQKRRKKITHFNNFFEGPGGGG

This is a selection; strong and weak results do not stand in their true shares. The list includes weakly bound sequences.

Turning to “CCGATTAACATCAGACAAGTTGGTGATGTTAATCGGGTCTTGATTCGCTTGACGCTGCTG”, the binding signal with GST-Ap-NF-kB RHD was 0.18 z-score; in experiment [1], 0.1 z-score; with GST-Co-NF-kB, -0.575 z-score; with GST-Dm-Relish, 0.0614 z-score; in the experiment with GST-Aq-NF-kB, -0.215 z-score.
As for “CCGATTAACATCAGCATCAAGCATGATGTTAATCGGGTCTTGATTCGCTTGACGCTGCTG”, the binding signal with GST-Ap-NF-kB RHD was -0.665 z-score; in experiment [1] it was -0.361 z-score; with GST-Co-NF-kB it was -1.22 z-score; with GST-Dm-Relish, -0.574 z-score; in the experiment with GST-Aq-NF-kB it was -0.6 z-score.
On the same counts, the results for “CCGATTAACATCAATTGCTGTAATGATGTTAATCGGGTCTTGATTCGCTTGACGCTGCTG” are -0.224 z-score, 0.123 z-score, 0.677 z-score, -0.574 z-score and -0.738 z-score.
On the same counts, the results for “CCGATTAACATCATTAGACAACCTGATGTTAATCGGGTCTTGATTCGCTTGACGCTGCTG” are 0.166 z-score, 0.0429 z-score, -0.0666 z-score, -0.451 z-score and -0.375 z-score.
On the same counts, the results for “CCGATTAACATCACGCGTCTACCTGATGTTAATCGGGTCTTGATTCGCTTGACGCTGCTG” are 0.227 z-score, 0.205 z-score, -0.665 z-score, 0.144 z-score and -0.281 z-score.
With “CCGATTAACATCAGTCTTAGTCGTGATGTTAATCGGGTCTTGATTCGCTTGACGCTGCTG”, the binding signal with GST-Ap-NF-kB RHD was -0.894 z-score; in experiment [1], -0.411 z-score; with GST-Co-NF-kB it was 0.113 z-score; with GST-Dm-Relish, -0.337 z-score; with GST-Aq-NF-kB, -0.597 z-score.
Consider “CCGATTAACATCAGTTTCTATTCTGATGTTAATCGGGTCTTGATTCGCTTGACGCTGCTG”, for which the binding signal is -0.423 z-score with GST-Ap-NF-kB RHD; 0.402 z-score in experiment [1]; -0.365 z-score with GST-Co-NF-kB; -0.394 z-score with GST-Dm-Relish; -0.318 z-score in the experiment with GST-Aq-NF-kB.
In the same order, the values of “CCGATTAACATCAGTCTGTCAATTGATGTTAATCGGGTCTTGATTCGCTTGACGCTGCTG” are -0.877 z-score, 0.101 z-score, -0.257 z-score, -1.13 z-score and -0.901 z-score.
In the same order, the values of “CCGATTAACATCATCGGAATTCGTGATGTTAATCGGGTCTTGATTCGCTTGACGCTGCTG” are -0.236 z-score, -0.719 z-score, -0.368 z-score, -0.0593 z-score and -0.301 z-score.
In the same order, the values of “CCGATTAACATCAAGTGCAGGGCTGATGTTAATCGGGTCTTGATTCGCTTGACGCTGCTG” are -0.171 z-score, -0.407 z-score, 0.0991 z-score, -0.0292 z-score and -0.153 z-score.
“CCGATTAACATCATCAACATACATGATGTTAATCGGGTCTTGATTCGCTTGACGCTGCTG”: the binding signal in the experiment with GST-Ap-NF-kB RHD was -0.579 z-score; in experiment [1], 0.162 z-score; with GST-Co-NF-kB, 0.211 z-score; with GST-Dm-Relish, -0.447 z-score; with GST-Aq-NF-kB it was -0.404 z-score.
Take “CCGATTAACATCAGAAACATTCCTGATGTTAATCGGGTCTTGATTCGCTTGACGCTGCTG”: the binding signal in the experiment with GST-Ap-NF-kB RHD was -0.497 z-score; in experiment [1], 0.182 z-score; with GST-Co-NF-kB, -0.759 z-score; with GST-Dm-Relish, 0.0722 z-score; in the experiment with GST-Aq-NF-kB, 0.285 z-score.
On the same counts, the results for “CCGATTAACATCACGCAAATTCCTGATGTTAATCGGGTCTTGATTCGCTTGACGCTGCTG” are -0.0374 z-score, 0.0485 z-score, 0.537 z-score, 0.6 z-score and 0.187 z-score.
In the same order, the values of “CCGATTAACATCAAGCTCTAAGGTGATGTTAATCGGGTCTTGATTCGCTTGACGCTGCTG” are 0.38 z-score, 0.305 z-score, 0.358 z-score, 0.313 z-score and 0.437 z-score.
In the same order, the values of “CCGATTAACATCACGAGGTTGACTGATGTTAATCGGGTCTTGATTCGCTTGACGCTGCTG” are 0.402 z-score, -1.11 z-score, -0.287 z-score, -0.488 z-score and -0.187 z-score.
Regarding “CCGATTAACATCAAATGGAAATTTGATGTTAATCGGGTCTTGATTCGCTTGACGCTGCTG”, the binding signal in the experiment with GST-Ap-NF-kB RHD is -1.15 z-score; in experiment [1] it was 0.713 z-score; in the experiment with GST-Co-NF-kB, -0.489 z-score; with GST-Dm-Relish, 0.705 z-score; with GST-Aq-NF-kB, 0.0592 z-score.
Regarding “CCGATTAACATCATCAACTAATTTGATGTTAATCGGGTCTTGATTCGCTTGACGCTGCTG”, the binding signal with GST-Ap-NF-kB RHD is -0.721 z-score; in experiment [1], -0.784 z-score; in the experiment with GST-Co-NF-kB, -0.887 z-score; with GST-Dm-Relish it was -0.467 z-score; with GST-Aq-NF-kB, -0.328 z-score.
On the same counts, the results for “CCGATTAACATCATCGGTTAGTGTGATGTTAATCGGGTCTTGATTCGCTTGACGCTGCTG” are 0.149 z-score, -1.01 z-score, 0.244 z-score, 0.612 z-score and -0.489 z-score.
In the same order, the values of “CCGATTAACATCAGTTCTCCGGATGATGTTAATCGGGTCTTGATTCGCTTGACGCTGCTG” are 0.00854 z-score, -1.43 z-score, -0.538 z-score, -0.882 z-score and -0.381 z-score.
On the same counts, the results for “CCGATTAACATCAGTCCAAAGCATGATGTTAATCGGGTCTTGATTCGCTTGACGCTGCTG” are -0.323 z-score, -0.341 z-score, -0.377 z-score, -0.727 z-score and -0.232 z-score.
“CCGATTAACATCAGTTAGGCCCATGATGTTAATCGGGTCTTGATTCGCTTGACGCTGCTG”: the binding signal was 0.262 z-score with GST-Ap-NF-kB RHD; -0.68 z-score in experiment [1]; -0.694 z-score in the experiment with GST-Co-NF-kB; -0.701 z-score with GST-Dm-Relish; 0.127 z-score with GST-Aq-NF-kB.
On the same counts, the results for “CCGATTAACATCAGCCTGCCCACTGATGTTAATCGGGTCTTGATTCGCTTGACGCTGCTG” are -0.0421 z-score, -0.357 z-score, -0.407 z-score, -0.984 z-score and -0.287 z-score.
In the same order, the values of “CCGATTAACATCATATAAGGGCCTGATGTTAATCGGGTCTTGATTCGCTTGACGCTGCTG” are 0.245 z-score, -0.119 z-score, -1.18 z-score, -0.346 z-score and 0.598 z-score.
In the same order, the values of “CCGATTAACATCACGTGCTCCCGTGATGTTAATCGGGTCTTGATTCGCTTGACGCTGCTG” are 0.783 z-score, -0.459 z-score, 0.19 z-score, 0.115 z-score and 0.223 z-score.
For “CCGATTAACATCAGGGCGTTCCATGATGTTAATCGGGTCTTGATTCGCTTGACGCTGCTG”, the binding signal with GST-Ap-NF-kB RHD is 0.215 z-score; in experiment [1] it was 0.00426 z-score; with GST-Co-NF-kB it was -1.18 z-score; in the experiment with GST-Dm-Relish, 0.175 z-score; with GST-Aq-NF-kB, 0.537 z-score.
On the same counts, the results for “CCGATTAACATCACCCGAGTGCGTGATGTTAATCGGGTCTTGATTCGCTTGACGCTGCTG” are 0.736 z-score, -0.521 z-score, 0.856 z-score, 1.01 z-score and 0.119 z-score.
